This is an account of results in PubChem BioAssay (NCI).

“And” between values parts separate entries of the source, which are not always exact repeats. Equal values may be shown once.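 A five-concentration, 48-hour dose response in 96-well plates underlies each endpoint, interpolated linearly between surrounding concentrations. Here, GI50 denotes the concentration required for 50% inhibition of growth. TGI marks complete inhibition of growth.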 Bounds are passed on as bounds.

The test system of this assay is NCI-H322M lung. Briefly: NCI-60 cell line screen, 48 h.

As to `CC(C)OP(=O)(CCCCCCCCC/C=C/c1ccc2c(c1)OCCOCCOCCOCCO2)OC(C)C`, the TGI is 11 µM.
In the case of `COc1cc(-c2cc(/C=C3\C(=O)Nc4ccc(Cl)cc43)[nH]n2)cc(OC)c1OC`, the GI50 was 8.62 µM and the TGI is > 100 µM.
Take `O=C1c2ccccc2C(=O)N1CCn1nc(-c2ccccc2)cc(-c2ccccc2)c1=O`: the TGI was > 100 µM.
The same measure, in the same setting: for `CN(C)c1ccc(C=NC23CC4CC(CC(C4)C2)C3)cc1` the value was > 100 µM.
Consider `CC(C)(C)CC(C)(C)c1ccc(OCCSC(=N)N)cc1`, for which the GI50 is 1.7 µM and the TGI stood at 3.17 µM.
`Clc1cccc(Cl)c1C(Nc1nncs1)Nc1nncs1`: the TGI stood at 81.8 µM.
On the same count and under the same terms, in the case of `CN(CCN(C)CCN(C)C(=O)Cc1ccc(Cl)c(Cl)c1)CCN1CCCC1` it was 55 µM; in that of `CC(C)(C)c1cc2c(O)c(c1)C(c1ccccc1)c1cc(C(C)(C)C)cc(c1O)Cc1cc(C(C)(C)C)cc(c1O)C(c1ccccc1)c1cc(C(C)(C)C)cc(c1O)C2` (centres undefined), > 100 µM.
On to `NS(=O)(=O)c1ccc(Nc2ncc(-c3ccccc3)o2)cc1`, for which the GI50 is > 25 µM and the TGI was > 25 µM.
Take `CNCCCNc1c2cc(OC)ccc2nc2cccc([N+](=O)[O-])c12`: the GI50 was 0.153 µM and the TGI is 2.56 µM.
Turning to `CSc1nn2c(-c3ccc4ccccc4c3)ccnc2c1C#N`, the GI50 was 5.94 µM and the TGI was > 100 µM.
Consider `CCCCC/C=C1\CC(CO)(COC(=O)CC(C(C)C)C(C)C)OC1=O` (centres undefined), for which the TGI was found to be 29.1 µM.
On to `COC(=O)C(C)(Cc1ccc2c(c1)nnn2C(C)=O)NC(C)=O` (centres undefined), for which the TGI was > 100 µM.
On the same count and under the same terms, in the case of `O=[N+]([O-])c1ccc2nc3n(c2c1)C(c1c(F)cccc1F)SC3` (centres undefined) it was > 100 µM; in that of `COc1ccc(-c2nc3ccc([N+](=O)[O-])cc3c(=O)[nH]2)cc1`, > 100 µM.
The same measure, in the same setting: for `Cc1cc(C)c2c(=O)cc(-c3cccc(Cl)c3)[nH]c2n1` the value was > 100 µM.
For the compound `CN(C)c1ccc(O)c2c1CC1CC3C(N(C)C)C(=O)C(C(N)=O)=C(O)C3(O)C(=O)C1=C2O` (centres undefined), the GI50 was 12.3 µM and the TGI stood at 65.6 µM.
The matching figures for `CCCCSSC(=S)N(CC)CC`: > 100 µM and > 100 µM.
In the case of `N#Cc1ccsc1Nc1ccccc1[N+](=O)[O-]`, the TGI was > 100 µM.
Consider `Cc1nnc([S-])o1.[Au+].c1ccc([PH+](c2ccccc2)c2ccccc2)cc1`, for which the GI50 was 1.62 µM and the TGI was 3.07 µM.
Consider `CC1=C(C(=O)Nc2ccc(Cl)c(Cl)c2)C(c2ccccc2Cl)NC(=S)N1` (centres undefined), for which the GI50 is 8.13 µM and the TGI came out at 18.2 µM.
For the compound `O=C(Nc1cccc(-n2cc(-c3ccncc3)c(-c3ccc(Cl)c(O)c3)n2)c1)Nc1cccc(C(F)(F)F)c1`, the GI50 is 6.41 µM and the TGI is > 32.5 µM.
Consider `CCN(CC)c1ccc2cc(C(=O)Nc3ccccc3OC)c(=N)oc2c1`, for which the TGI was > 100 µM.
With `Cc1cc(I)cc(CN(C)CCN(C)C)c1O`, the GI50 is 48.4 µM and the TGI is > 100 µM.
Take `COc1ccc(NCC#N)cc1`: the TGI is > 100 µM.
Turning to `C=C1C(=O)O[C@H]2[C@H]1CC/C(COC(=O)NCc1ccc(Cn3c(=O)sn(CCI)c3=O)cc1)=C\CC[C@@]1(C)O[C@@H]21`, the GI50 is 15.1 µM and the TGI worked out at 28.4 µM.
`O=NN(CCCl)C(=O)NC1CCC(C(=O)O)CC1` (centres undefined): the TGI is > 100 µM.
For `CC(C)(Oc1ccc(Cl)cc1)C(=O)NC1C2CC3CC1CC(NS(C)(=O)=O)(C3)C2` (centres undefined), the GI50 is > 100 µM and the TGI is > 100 µM.
With `CC(NC(=O)CNP(=O)(c1ccccc1)c1ccccc1)C(=O)NC(Cc1ccccc1)C(=O)OCc1ccccc1` (centres undefined), the TGI is > 100 µM.
In the case of `N#Cc1c(-c2ccccc2)n([O-])c2ccccc2[n+]1=O`, the GI50 is 23.6 µM and the TGI was 67.4 µM.
As to `COC(=O)[C@](NC(=O)OCc1ccccc1)([C@@H](C)Sc1ccc(C)cc1)C(F)(F)F`, the TGI was > 100 µM.
On to `O=NNc1ccc(S(=O)c2ccccc2)cn1` (centres undefined), for which the TGI is > 100 µM.
Compound `CS(=O)(=O)Nc1ccc(Nc2cc[nH]c3ccc4nccc4c23)cc1` returned a TGI of 28.7 µM.
On the same count and under the same terms, in the case of `NC(=O)c1ncn2c1NCC1OC2C(O)C1O` (centres undefined) it was > 100 µM.
As to `CCCn1c2c(c3ccccc3c1=O)C(=O)c1cc3c(cc1-2)OCO3`, the GI50 was 50.9 µM and the TGI is > 100 µM.
In the case of `COC(=O)[C@@H]1CCCN1C(=O)[C@@H]1CCCN1C(=O)[C@H](Cc1ccccc1)NC(=S)Nc1cc(C(F)(F)F)cc(C(F)(F)F)c1`, the GI50 was 9.46 µM and the TGI was > 100 µM.
Regarding `Cn1cc2ccccc2c1-c1nc(F)nc(Oc2ccc3c(c2)CC[C@@H]2C3CC[C@@]3(C)C2CC[C@@H]3O)n1` (some centres undefined), the TGI is > 100 µM.
The same measure, in the same setting: in the case of `C=CCCC(=O)N1CCC(C(=O)OCC)C1=O` (centres undefined) it was > 100 µM.
Consider `CO[C@@H](C(=O)N1Cc2[nH]nc(NC(=O)c3ccc(N4CCN(C)CC4)cc3)c2C1)c1ccccc1`, for which the GI50 was 2.56 µM and 1.88 µM; the TGI is > 100 µM.
As for `O=C(O)CCC(=O)C(=O)O`, the TGI is > 100 µM.
Same read-out and setting: in the case of `C=C1C[C@]23CC[C@@H]4C(CO)(CO)CC(=O)C[C@]4(C)[C@@H]2CC[C@H]1C3` it was > 100 µM; in that of `CC1=C(C#N)C2C(=C(C)N1)C(N)=Nc1ccccc12` (centres undefined), > 100 µM; in that of `C=C(C)C[C@H](Sc1nc2ccccc2s1)[C@H](C)O`, > 100 µM.
On the same count and under the same terms, in the case of `CC1(C)CC2=C(SC3C=CC=CC3N2)C(=O)C1C(=O)C(N)=O` (centres undefined) it was > 100 µM; in that of `CN1C(c2ccccc2)CC(=NOCc2ccccc2)CC1c1ccccc1` (centres undefined), 61.8 µM; in that of `CCN(CC)c1ncnc2c1ncn2CCNC(CO)(CO)CO`, > 100 µM.
Same read-out and setting: for `CCN(CC)CCn1c(=O)c2ccccc2n2c3c(=O)n(C)c(=O)n(C)c3nc12` the value was 18.8 µM.
Regarding `O=CC(NC(=O)N(CCCl)N=O)C(O)C(O)C(O)CO` (centres undefined), the GI50 is 328 µM; the TGI is 625 µM and > 1250 µM.
With `COC(=O)c1sc(=O)n(-c2ccccc2)c1SCc1ccccc1`, the TGI is > 100 µM.
Same read-out and setting: for `CC(=O)c1c(-c2ccco2)c(C#N)c(=S)n(C2OC(CO)C(O)C(O)C2O)c1-c1ccccc1` (centres undefined) the value was > 100 µM.
For `COc1ccc(-c2cc3c(OC)c(OC)c(OC)cc3oc2=O)cc1`, the GI50 was 6.87 µM and the TGI is > 100 µM.
For `OCCCNCC(O)c1ccc(OCc2ccccc2)c(OCc2ccccc2)c1` (centres undefined), the TGI is 27.1 µM.
Still for that read-out and setting: for `Nc1ccc2nc3ccc(=O)cc-3n(-c3ccccc3)c2c1` the value was > 100 µM.
For the compound `COc1ccc(-c2cnoc2-c2ccc(OC)cc2O)cc1`, the GI50 is 15.1 µM and the TGI is > 100 µM.
The matching figures for `C/C=C(/C(=C/C)c1ccc(O)cc1)c1ccc(O)cc1`: 6.43 µM and 22.3 µM.
The matching figures for `CCN(CC)CCCN1C(=O)c2c(c(C)c3c(oc4ccc(O)cc43)c2C)C1=O`: 1.68 µM and 3.09 µM.
Turning to `CC(C)(C)C1=NC(=S)SC2=NC(=O)C3(NN21)c1ccccc1-c1ccccc13`, the TGI was > 10 µM.
The same measure, in the same setting: for `CCCCCOC(=O)C(=O)Nc1n[nH]nc1C(N)=O` the value was > 100 µM; for `N#CCCN(CCNc1ccccc1)C(=O)Nc1ccc(NC(=O)N(CCC#N)CCNc2ccccc2)cc1`, > 100 µM.
In the case of `Cc1ccc(NC(=S)C#N)cc1Cl`, the TGI is > 100 µM.
For `CCCCCCCCCCCCCCCCNC(=O)OC(C)C`, the GI50 is 2.05 µM and the TGI turned out to be 5.49 µM.
